Measurements: PubChem BioAssay AID1347073 (National Center for Advancing Translational Sciences (NCATS), 2019)
Screen size: about 45,000 compounds; about 200 (0.44%) were called active. Roughly 7% stayed inconclusive and do not appear here. Calls follow the shape of the dose curve; as a rule, active = well fitted activation curve with a large enough effect; inconclusive = small, poorly fitted or top-dose-only effect; inactive = no such curve, though single readings can be large or run the other way. The list shows a part of the results.

Test: qHTS of TDP-43 Inhibitors: NCGC Sytravon Library Screen; also: 0% is about no effect; nearly all actives have a fitted effect of over 55% in size
Settings: yeast TDP-43 toxicity rescue, BacTiter-Glo growth, 24 h; series mostly up to 46.1 µM; growth rescue (activation): at the top concentration
Method in brief: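 TDP-43-expressing yeast, pregrown in raffinose, seeded at OD600 0.02 in galactose medium with compound for 24 hr at 30 deg C. Growth read by BacTiter-Glo luminescence, so rescue of toxicity appears as activation.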

Row | Compound | growth rescue (activation)
1 | CCOc1ncccc1C(=O)Nc1ccccc1F | inactive: 25.4%
2 | CCCC(O)(c1ccc(Br)cc1)C(CN1CCOCC1)c1ccc(Cl)cc1 (stereo unspecified) | inactive: 7.89%
3 | COc1ccc(NC(=O)COC(=O)C2CCC(C(C)(C)C)CC2)c([N+](=O)[O-])c1 (stereo unspecified) | inactive: 7.44%
4 | O=C(CSCc1cnn(-c2ccccc2)c1-n1cccc1)NCc1cccnc1 | inactive: 3.94%
5 | CCNC(=O)NC(=O)COC(=O)CCc1nc(=O)c2ccccc2n1C | inactive: 7.85%
6 | CNC(C)c1ccc(S(N)(=O)=O)cc1 (stereo unspecified) | inactive: 5.08%
7 | Cc1ccc(C2=NNC(c3ccc(Cl)cc3)=Nc3ccccc32)o1 | inactive: 20.2%
8 | CCOC(=O)N1CCC(N(CCN(C)C)C(=S)Nc2cccc(SC)c2)CC1 | inactive: -2.37%
9 | Nc1cc2c(cc1[N+](=O)[O-])OCCO2 | inactive: 0.751%
10 | Cc1ccccc1N(CC(=O)NCCc1ccccc1)C(=O)CCC(=O)Nc1ccccn1 | inactive: -3.76%
11 | COc1ccc(C(=O)O/N=C(\N)Cc2ccc(Cl)c(Cl)c2)cc1OC | inactive: -94.2%
12 | CCCC(=O)N(Cc1cc(=O)[nH]c2ccccc12)c1ccccc1OC | inactive: 10.1%
13 | Cc1ccc(C)c(N2CCN(C(=O)CN(C)S(=O)(=O)c3cnc[nH]3)CC2)c1 | inactive: -28.9%
14 | O=C(O)c1cc(NS(=O)(=O)c2ccc(N3CCOCC3)c([N+](=O)[O-])c2)cc(C(=O)O)c1 | inactive: -2.61%
15 | O=c1c2ccccc2nc2c3ccccc3c(NCc3ccccn3)nn12 | inactive: -5.69%
16 | COc1ccccc1/C=C/C(=O)Nc1ccc(S(=O)(=O)Nc2cc(C)nc(C)n2)cc1 | inactive: 10.2%
17 | CCNC(=O)C1(C)CCN1C(=O)CCc1cccc(Cl)c1 (stereo unspecified) | inactive: -7.81%
18 | CCOC(=O)C1(Cc2ccccc2)CCN(Cc2ccc3c(c2)OCCO3)CC1 | inactive: 7.58%
19 | COc1ccc(CN(CC2CCC(C(=O)O)CC2)C(=S)Nc2cc(C)cc(C)c2)cc1 (stereo unspecified) | inactive: 2.06%
20 | CC(=O)Nc1ccc(NC(=O)CC23CC4CC(CC(C4)C2)C3)cc1 | inactive: 3.79%
21 | O=C(OC1CCOC1=O)c1ccc(NS(=O)(=O)c2cccs2)cc1 (stereo unspecified) | inactive: -1.52%
22 | COC(=O)c1c(N2C(=O)[C@H]3[C@@H](C2=O)[C@]2(C(=O)Nc4c(C)cc(C)cc42)N2CCC[C@@H]32)sc(C)c1C | inactive: 5.59%

Row | Compound | growth rescue (activation)
23 | CC1(C)CC(=O)c2cc(C(=O)NCc3ccco3)c(=O)n(-c3ccccc3)c2C1 | inactive: -0.425%
24 | Cc1cc2ccccn2c1C(=O)Nc1ccccc1 | inactive: 17.1%
25 | COc1ccc(C(=O)NCC(=O)N/N=C/c2ccco2)cc1OC | inactive: -7.61%
26 | O=C(O)c1ccc(Cn2c(=S)[nH]c3cc(Cl)ccc3c2=O)cc1 | inactive: 12%
27 | O=S(=O)(c1ccc2c(c1)OCCO2)N1CCN(c2ncnc3sccc23)CC1 | inactive: 35.5%
28 | Cc1ccc(OCC(=O)N(Cc2ccc(N(C)C)cc2)C2CCS(=O)(=O)C2)cc1C (stereo unspecified) | inactive: -13.6%
29 | Cc1ccc(S(=O)(=O)N2CCOCC2)cc1NC(=O)CN1C(=O)NC2(CCCC2)C1=O | inactive: 2.41%
30 | O=C1C2Sc3[nH]c(=O)sc3C(c3cc([N+](=O)[O-])ccc3O)C2C(=O)N1c1ccccc1 (stereo unspecified) | inactive: -3.27%
31 | COCCCN1CN=C(NS(=O)(=O)c2ccc(C)cc2)NC1 | inactive: 9.21%
32 | Cc1ccc(CSc2ncnc3ccccc23)cc1 | inactive: 9.19%
33 | O=C(COC(=O)c1ccccc1Nc1ccccc1)Nc1ccccc1 | inactive: 11%
34 | CC(=O)c1ccc(OCC(O)CN2CCN(c3ccc(F)cc3)CC2)cc1 (stereo unspecified) | inactive: 0.37%
35 | CCSc1nnc(NC(=O)CCc2ccc(OC)cc2)s1 | inactive: -2.86%
36 | O=C(O)c1ccc(/C=N/Nc2ccc(S(=O)(=O)N3CCCC3)cc2[N+](=O)[O-])cc1 | inactive: -3.15%
37 | CCOc1ccc(S(=O)(=O)Nc2ncn[nH]2)cc1 | inactive: 14.8%
38 | Cc1ccccc1CN1C(=O)c2ccccc2S1(=O)=O | inactive: 16.4%
39 | COc1ccc(NC(=O)c2cncc(Br)c2)cc1S(=O)(=O)N1CCCCC1 | inactive: 9.3%
40 | Cc1ccc2nc(CCl)[n+]([O-])c(-c3ccccc3)c2c1 | inactive: -2.95%
41 | Cc1c(NC(=O)COc2ccc3ccccc3c2)c(=O)n(-c2ccccc2)n1C | inactive: -9.39%
42 | Cc1ccc(O)c(C(=O)c2cnn(C(=O)COc3ccc(Cl)cc3)c2)c1 | inactive: 0.905%
43 | NC1=NS(=O)(=O)NC1c1cccc(F)c1 (stereo unspecified) | inactive: 0.313%
44 | Nc1cccc(P(=O)(c2ccccc2)c2ccccc2)c1 | inactive: 13.9%

Row | Compound | growth rescue (activation)
45 | CCOC(=O)C1CCN(C(=O)c2ccccc2NS(=O)(=O)c2ccc(C)cc2)CC1 | inactive: 19.2%
46 | Cc1ccccc1/C=C/c1nc2ccccc2c(=O)n1Cc1ccccc1 | inactive: -3.2%
47 | CCOc1ccc(-n2c(=S)sc3c(=O)[nH]c(SCC(=O)C(C)(C)C)nc32)cc1 | inactive: -3.83%
48 | O=C(O)c1cc(NN=C2c3ccccc3-c3ccccc32)ccc1Cl | inactive: -93.7%
49 | CN(C)S(=O)(=O)c1cccc(NC(=O)C2Cc3ccccc3CN2C(=O)c2ccco2)c1 (stereo unspecified) | inactive: 8.16%
50 | CCOc1ccccc1N1CCN(C(=O)NCc2ccc(F)cc2)CC1 | inactive: 11.7%
51 | O=C(CCC1CCCN(C2C3CC4CC(C3)CC2C4)C1)NCc1ccc(F)c(F)c1 (stereo unspecified) | inactive: -7.85%
52 | CCCN(CCC)CCCNC(=O)Cn1cnc2sc(C)c(S(=O)(=O)N3CCC(C)CC3)c2c1=O | inactive: 15.4%
53 | O=C(CNC(=O)C1COc2ccccc2O1)N/N=C\c1ccccc1Cl (stereo unspecified) | inactive: -12.4%
54 | NS(=O)(=O)c1ccc(NC(=O)CSc2nc3ccccc3n2-c2ccccc2)cc1 | inactive: 9.74%
55 | COc1ccc(Br)cc1CNC(=O)c1ccc2c(c1)N(Cc1ccc(C)cc1)CCS2 | inactive: -1.09%
56 | CCn1c(CCl)nc2cc(S(=O)(=O)N3CCOCC3)ccc21 | inactive: -11.8%
57 | Cc1ccc2c(c1)N(Cc1ccc([N+](=O)[O-])cc1)C=NS2(=O)=O | inactive: 6.38%
58 | CCOCCCNC(=O)C1CCN(S(=O)(=O)N2CCCC2)CC1 | inactive: -8.09%
59 | COC(=O)c1c(C)nn(-c2ccc(F)cc2)c1-n1cccc1 | inactive: 18.9%
60 | Fc1ccccc1Cc1noc(CN2CCC(OCc3cccnc3)CC2)n1 | inactive: -24.1%
61 | C=CCNC(=S)Nc1nc2c(cc1C(=O)OCC)CCCC2 | inactive: -6.19%
62 | COc1ccc(C2CC(c3ccc4ccccc4c3)=NN2C(=O)CN2C(=O)CCC2=O)cc1 (stereo unspecified) | inactive: 6.04%
63 | O=C(C1CCCN(CCCc2ccccc2)C1)N1CCCCC1 (stereo unspecified) | inactive: 0.794%
64 | COc1cc2c(cc1OC)C1=C(C#N)CCC(=NC(=O)c3ccc(Cl)cc3)N1CC2 | inactive: 19.8%
65 | COc1ccccc1NC(=O)CC(NC1CCCCC1)C(=O)O (stereo unspecified) | inactive: 19.8%
66 | CCCCNC(=O)NS(=O)(=O)c1ccc(NC(=O)C(NC(N)=O)C(C)CC)cc1 (stereo unspecified) | inactive: -5.17%

Row | Compound | growth rescue (activation)
67 | COCCOC(=O)C1=C(C)NC(=O)NC1c1ccc(-c2cc(Cl)ccc2Cl)o1 (stereo unspecified) | inactive: -9.59%
68 | O=C(NC(=S)Nc1ccc(CN2CCCCC2)cc1)c1ccco1 | inactive: -10.5%
69 | CCCCNC(=O)c1ccc2nc(CC)c(N(C)Cc3ccc(OC)cc3)n2c1 | inactive: 8.32%
70 | CC1CC(C)CN(CCOc2cccc3ccccc23)C1 (stereo unspecified) | inactive: 5.28%
71 | C=CCOc1ccc(/C=C/C(=O)OCC(=O)NNC(=O)c2ccccc2F)cc1 | inactive: 17.3%
72 | CCOc1ccc(CN2CCN(Cc3cccn3-c3ncccn3)CC2CCO)cc1 (stereo unspecified) | inactive: 4.37%
73 | Cc1cc(C)n2c(SCC(=O)N(C)C3CCCCC3)nnc2n1 | inactive: 3.31%
74 | CC(C)Cc1csc(NC(=O)c2ccc(F)cc2)c1C(=O)O | inactive: 0.467%
75 | O=C(NC(Cc1ccccc1)C(=O)O)/C(=C/c1ccc(Cl)cc1)NC(=O)c1ccco1 (stereo unspecified) | inactive: -12.1%
76 | O=C(Nc1ccccc1Cl)NC1(C(=O)NCc2ccncc2)CCCCC1 | inactive: -19.4%
77 | CC(NC(=O)/C=C/c1ccccc1[N+](=O)[O-])C1CC2CCC1C2 (stereo unspecified) | inactive: 6.23%
78 | Cc1nc2nc(SCC(=O)NCc3ccco3)nn2c(C)c1Cc1ccccc1 | inactive: -22.6%
79 | CS(=O)(=O)c1ccc(Oc2ccc(-c3nnco3)cc2)c([N+](=O)[O-])c1 | inactive: -2.35%
80 | C(=C\c1ccccc1)/CNCC1CCCO1 (stereo unspecified) | inactive: 13%
81 | Cc1cc(Oc2ccc([N+](=O)[O-])cc2)nc(N2CCOCC2)n1 | inactive: 6.14%
82 | CC1(C)SC(=S)N(NC(=O)Nc2cccc3ccccc23)C1N(O)C(=O)Nc1ccccc1 (stereo unspecified) | inactive: 14%
83 | C/C(=N\NC(=O)c1cccc(S(=O)(=O)Nc2cccc(Cl)c2)c1)c1cccs1 | inactive: -3.42%
84 | O=S(=O)(c1ccc2ccccc2c1)N(CC1CO1)c1ccccc1 (stereo unspecified) | inactive: 7.54%
85 | COc1ccc(C(=O)NCC(=O)OCC(=O)Nc2sccc2C#N)cc1OC | inactive: -10.3%
86 | CC(=O)c1ccc(NC(=O)C(C)OC(=O)COc2ccc(C#N)cc2)cc1 (stereo unspecified) | inactive: 15.4%
87 | Cc1cc(Br)ccc1NC(=O)c1cnc(N2CCN(c3ccccn3)CC2)c2ccccc12 | inactive: 10.7%
88 | O=C(NCc1cccc(Cl)c1)C1CCN(C(=O)c2sccc2-n2cccc2)CC1 | inactive: 7.21%

Row | Compound | growth rescue (activation)
89 | CN(C)S(=O)(=O)c1cccc(-c2csc(N/N=C/c3ccco3)n2)c1 | inactive: 25.8%
90 | O=C(CS(=O)(=O)c1ccccc1)Nc1ccc(S(=O)(=O)Nc2ccccn2)cc1 | inactive: 2.39%
91 | Cc1cccc(C(=O)NNC(=O)CSc2nnc(C3CC3)n2C)c1 | inactive: -25.2%
92 | O=S(=O)(NCCc1nc2ccccc2[nH]1)c1ccccc1 | inactive: 3.99%
93 | O=C(C1CC(=O)N(c2ccc(Cl)cc2)C1)N1CCN(Cc2ccc3c(c2)OCO3)CC1 (stereo unspecified) | inactive: 1.03%
94 | Cn1ncc(N2CCN(C(=O)c3ccc(Cl)cc3)CC2)c(Cl)c1=O | inactive: 3.76%
95 | COc1cccc(C(NC(C)=O)c2nc(-c3ccc(OC)nc3)cs2)c1 (stereo unspecified) | inactive: 24.5%
96 | CC(C)(Cc1ccc(O)cc1)NC(=O)CC(=O)N=Nc1c(O)[nH]c2ccc(Br)cc12 | inactive: 7.94%
97 | CCc1cccc(NC(=O)c2ccc(CNc3c(N4CCCC4)c(=O)c3=O)cc2)c1 | inactive: -1.72%
98 | Cc1nc2c(c(=O)n1CCC(C)C)c1nc3ccccc3nc1n2Cc1ccc2c(c1)OCO2 | inactive: -1.1%
99 | O=C(CCNC(=O)c1ccccc1)NCCc1ccc(Cl)cc1 | inactive: 1.73%
100 | CSCc1ccc(C(=O)NCc2ccc(F)cc2)cc1 | inactive: 14.3%
101 | Cc1cccc(N=Nc2ccc(O)c3ncccc23)c1 | inactive: -55.1%
102 | CC(NC(=O)c1cccc(Br)c1)c1ccccc1 (stereo unspecified) | inactive: 30.4%
103 | CCc1c(C)nc2nc(SCc3ccccc3Cl)[nH]n2c1=O | inactive: -3.8%
104 | O=C(Nc1ccccc1F)C1CCN(C(=O)NC2CCCCC2)CC1 | inactive: 19.5%
105 | O=C(Nc1ccc(F)cc1)C1CCCCC1 | inactive: 26.1%
106 | O=C(COc1ccc(S(=O)(=O)N2CCOCC2)cc1Cl)N1CCOCC1 | inactive: 1.12%
